{"source": "PubChem BioAssay AID588342", "about": "(National Center for Advancing Translational Sciences (NCATS), 2011)", "note": "Among all 360,000 compounds or so, about 25,000 (6.9%) were called active. Inconclusive means that the source gave no clear call. Such entries were picked first, then a sample of the others. Calls come from the whole dose curve; as a rule, active = well fitted inhibition curve with a large enough effect; inconclusive = small, poorly fitted or top-dose-only effect; inactive = flat fitted curve, though single readings scatter. Potencies beside an inconclusive call are fits to weak or partial responses and may not hold up. Potency is the fitted concentration of half-maximal effect; tags give direction and shape of the fitted curve.", "data": [{"target": "Luciferin 4-monooxygenase (Photinus pyralis) (UniProt P08659)", "sequence (P08659 whole entry, looked up)": "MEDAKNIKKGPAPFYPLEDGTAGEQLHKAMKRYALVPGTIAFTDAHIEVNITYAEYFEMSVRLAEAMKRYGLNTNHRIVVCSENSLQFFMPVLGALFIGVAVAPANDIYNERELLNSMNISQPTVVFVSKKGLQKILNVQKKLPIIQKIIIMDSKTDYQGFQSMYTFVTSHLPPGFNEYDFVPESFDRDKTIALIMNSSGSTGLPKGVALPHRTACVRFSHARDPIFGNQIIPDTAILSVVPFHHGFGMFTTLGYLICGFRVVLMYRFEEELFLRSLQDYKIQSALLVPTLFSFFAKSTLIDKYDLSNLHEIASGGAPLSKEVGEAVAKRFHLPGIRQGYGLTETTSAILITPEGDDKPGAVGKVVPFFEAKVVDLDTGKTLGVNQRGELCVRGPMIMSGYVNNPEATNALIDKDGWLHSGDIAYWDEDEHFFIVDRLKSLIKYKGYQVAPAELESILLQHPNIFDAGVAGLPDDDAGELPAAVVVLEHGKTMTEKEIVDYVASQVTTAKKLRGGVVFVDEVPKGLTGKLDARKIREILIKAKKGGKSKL", "assay": "qHTS profiling assay for firefly luciferase inhibitor/activator using purifed enzyme and Km concentrations of substrates (counterscreen for miR-21 project); note: nearly all actives have a fitted effect of over 55% in size;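 for activity change, negative = inhibition: plate controls were vehicle for no effect and reference inhibitor for full effect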", "details": "purified FLuc, luminescence inhibition; series mostly up to 57.5 µM; activity change, negative = inhibition: at the top concentration", "summary_of_the_method": "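Purified P. pyralis luciferase, 10 nM final, with Km-level 10 uM D-luciferin and 10 uM ATP in 50 mM Tris acetate pH 7.5, 10 mM Mg acetate, 0.01% Tween-20, 0.05% BSA; 6-point qHTS titration about 60 µM downward; luminescence read.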", "values": [{"smiles": "COc1cccc(C(=O)Nc2cccc(OCc3cc(=O)n4cc(C)ccc4n3)c2)c1", "Potency": "inconclusive: 3.01 µM [inhibitor, full curve]"}, {"smiles": "C/C(=N\\NC(=O)c1ccc(NS(=O)(=O)c2cccs2)cc1)c1ccncc1", "Potency": "inconclusive: 19 µM [inhibitor, partial curve, poor fit]"}, {"smiles": "O=C(CN1CCN(C(=O)c2ccc(-c3nc4ccccc4s3)o2)CC1)Nc1ccccc1Cl", "Potency": "inconclusive: 23.9 µM [inhibitor, partial curve]"}, {"smiles": "CC(C)=CCCC1(C)C=Cc2c(ccc3c2[nH]c2cc(O)c(C)cc23)O1", "note": "(stereo not given)", "Potency": "inconclusive: 26.9 µM [inhibitor, single point]"}, {"smiles": "Cc1ccc(C(=O)OCC(=O)N2C(C)CCCC2C)s1", "note": "(stereo not given)", "Potency": "inconclusive: 16.9 µM [inhibitor, partial curve, poor fit]"}, {"smiles": "O=C(NCCCN1CCOCC1)c1cc(-c2ccc(F)cc2)nc2ccccc12", "Potency": "inconclusive: 16.9 µM [inhibitor, partial curve]"}, {"smiles": "CCCCc1nn2c(=O)cc(COC(=O)c3cccc(OC)c3)nc2s1", "activity change, negative = inhibition": "inactive: -14%"}, {"smiles": "COc1ccc2c(c1)cc1c(=O)n(CC(=O)NCc3ccco3)nc(C)n12", "activity change, negative = inhibition": "inactive: 0.26%"}, {"smiles": "Cc1cc(C)nc(NS(=O)(=O)c2ccc(N=Cc3c(C)[nH]n(-c4ccccc4)c3=O)cc2)n1", "Potency": "inconclusive: 30.1 µM [inhibitor, partial curve, poor fit]"}, {"smiles": "COc1ccc(/C=C2\\CC/C(=C\\c3ccc(OC)c(OC)c3)C2=O)cc1OC", "Potency": "active: 1.2 µM"}, {"smiles": "Cc1c(Cl)cccc1NC(=O)Nc1cccnc1", "Potency": "inconclusive: 37.9 µM [inhibitor, partial curve, poor fit]"}, {"smiles": "CCc1nnc2c(Nc3cccc(C(C)=O)c3)nc3ccccc3n12", "activity change, negative = inhibition": "inactive: 4.22%"}, {"smiles": "CCCN1CCn2c3c(c4cc(Br)ccc42)CCCC31", "note": "(stereo not given)", "Potency": "inconclusive: 37.9 µM [inhibitor, single point]"}, {"smiles": "Cc1ccc2oc(C(=O)Nc3nnc(CC(C)C)s3)cc(=O)c2c1", "Potency": "inconclusive: 10.7 µM [inhibitor, partial curve]"}, {"smiles": "CCc1ccc(NC(=O)C(=O)N/N=C(\\C)CC(=O)Nc2ccc(OC)cc2)cc1", "Potency": "inconclusive: 6.75 µM [inhibitor, partial curve, poor fit]"}, {"smiles": "CCN(CC)c1cc(C)nc2nc(-c3ccc(C)cc3)nn12", "Potency": "inconclusive: 13.5 µM [inhibitor, partial curve]"}, {"smiles": "CSCCC(NC(N)=O)C(=O)Nc1ccc(F)c(Cl)c1", "note": "(stereo not given)", "activity change, negative = inhibition": "inactive: -0.936%"}, {"smiles": "Fc1ccccc1-n1c(-c2ccc3ccccc3n2)n[nH]c1=S", "Potency": "inconclusive: 26.9 µM [inhibitor, partial curve, poor fit]"}, {"smiles": "CNC(=O)c1sc(NCc2ccccc2OC)nc1C", "activity change, negative = inhibition": "inactive: -3.58%"}, {"smiles": "Cc1cccc(Nc2nnc(SC3CCOC3=O)s2)c1C", "note": "(stereo not given)", "Potency": "inconclusive: 26.9 µM [inhibitor, partial curve, poor fit]"}, {"smiles": "Cc1cccc(CN2C(=O)N/C(=C/c3cc(C)n(-c4ccccn4)c3C)C2=O)c1", "Potency": "inconclusive: 4.78 µM [inhibitor, full curve]"}, {"smiles": "CCCCNC(=O)CO/N=C(\\C)c1cc2ccccc2o1", "Potency": "inconclusive: 21.3 µM [inhibitor, partial curve, poor fit]"}, {"smiles": "O=C(Nc1nc(-c2ccc(S(=O)(=O)N3CCOCC3)cc2)cs1)c1ccccc1", "activity change, negative = inhibition": "inactive: -15%"}, {"smiles": "Clc1ccc(CSc2ccc(-c3ccco3)nn2)cc1", "Potency": "inconclusive: 4.26 µM [inhibitor, partial curve, poor fit]"}, {"smiles": "CN(C)S(=O)(=O)c1cccc(NC(=O)COc2ccc3ccccc3c2)c1", "Potency": "active: 6.01 µM"}, {"smiles": "Cc1c(Cl)cccc1-n1c(CCC(=O)O)ccc1-c1cccs1", "Potency": "inconclusive: 21.3 µM [inhibitor, partial curve]"}, {"smiles": "O=[N+]([O-])c1ccccc1-c1cc(-c2cc(Cl)ccc2O)n[nH]1", "Potency": "inconclusive: 30.1 µM [inhibitor, single point]"}, {"smiles": "O=C(NC(=S)N1CCN(c2nc(-c3ccccc3)cs2)CC1)c1cncc(Br)c1", "Potency": "inconclusive: 37.9 µM [inhibitor, single point]"}, {"smiles": "Cc1cccc(C(=O)NNC(=O)c2ccccc2C)c1", "Potency": "inconclusive: 26.9 µM [inhibitor, partial curve, poor fit]"}, {"smiles": "O=C1c2ccc(-c3ccc4c(c3)C(=O)N(CCCO)C4=O)cc2C(=O)N1CCCO", "Potency": "inconclusive: 19 µM [inhibitor, partial curve, poor fit]"}, {"smiles": "Cc1c(C(N)=O)nnn1-c1ccc(Br)cc1", "activity change, negative = inhibition": "inactive: -1.6%"}, {"smiles": "CCCCn1c(C)cc(/C=C(\\C#N)C(=O)O)c1C", "Potency": "inconclusive: 37.9 µM [inhibitor, single point]"}, {"smiles": "CCn1cc(C(=O)OCC(=O)Nc2cc(Cl)ccc2OC)c(=O)c2ccc(C)nc21", "activity change, negative = inhibition": "inactive: 3.39%"}, {"smiles": "Cc1ccc(-n2c(C)nn(CCOc3ccccc3)c2=O)cc1", "Potency": "inconclusive: 21.3 µM [inhibitor, partial curve]"}, {"smiles": "O=C(O)c1ccc(-c2ncc[nH]2)cc1", "activity change, negative = inhibition": "inactive: -2.72%"}, {"smiles": "CC(C)(C)c1nc(NC(=O)Nc2ccccc2)sc1Br", "Potency": "active: 19 µM"}, {"smiles": "Cc1ccc2c(c1)c(=O)c(C(=O)c1ccncc1)cn2CC(=O)Nc1c(C)cccc1C", "activity change, negative = inhibition": "inactive: 3.05%"}, {"smiles": "Cn1cc(S(=O)(=O)N2CCCCC2)cc1C(=O)N1CCN(c2ccc(F)cc2)CC1", "activity change, negative = inhibition": "inactive: -8.02%"}, {"smiles": "Cc1nn(-c2ccccc2)nc1C(=O)OCC(=O)N1CCC(C)CC1", "Potency": "inconclusive: 21.3 µM [inhibitor, single point]"}, {"smiles": "Cc1ccc(C)c(S(=O)(=O)c2cnc(SCC(=O)Nc3ccc(F)cc3F)[nH]c2=O)c1", "Potency": "inconclusive: 12 µM [inhibitor, partial curve]"}, {"smiles": "COc1ccc(CCNC(=O)c2coc3ccccc3c2=O)cc1OC", "Potency": "inconclusive: 30.1 µM [inhibitor, single point]"}, {"smiles": "COc1ccccc1C(=O)Nc1ccc(C2=NNC(=O)CC2C)cc1", "note": "(stereo not given)", "Potency": "inconclusive: 21.3 µM [inhibitor, single point]"}, {"smiles": "O=[N+]([O-])c1ccccc1-c1ccc(C(=S)N2CCCCC2)o1", "Potency": "active: 8.49 µM"}, {"smiles": "COc1ccc(/C=C(\\C#N)C(=O)NCc2ccccc2)cc1", "Potency": "inconclusive: 15.1 µM [inhibitor, partial curve]"}, {"smiles": "CNC(=O)Nc1ccc2snnc2c1", "activity change, negative = inhibition": "inactive: -8.62%"}, {"smiles": "CC1=NN(C(=O)c2ccccc2F)C(O)(c2ccc(Cl)cc2)C1", "note": "(stereo not given)", "activity change, negative = inhibition": "inactive: 0.318%"}, {"smiles": "NC(=O)c1ccsc1NC(=O)CSc1ccccc1F", "Potency": "active: 21.3 µM"}, {"smiles": "O=C(O)/C=C\\C(=O)Nc1cccc(NC(=O)c2ccccc2)c1", "Potency": "inconclusive: 26.9 µM [inhibitor, partial curve, poor fit]"}, {"smiles": "COC(=O)COc1ccccc1C(=O)Nc1ccc(OC)cc1", "Potency": "inconclusive: 21.3 µM [inhibitor, single point]"}, {"smiles": "Cc1occc1C(=O)N/N=C/c1sc(N2CCOCC2)nc1-c1ccccc1", "activity change, negative = inhibition": "inactive: -2.29%"}, {"smiles": "C(=C\\c1ccccc1)/CSc1nnc(-c2cccnc2)n1Cc1ccco1", "Potency": "inconclusive: 23.9 µM [inhibitor, partial curve, poor fit]"}, {"smiles": "COc1cc(OC)c(NC(=O)CCn2cnc3onc(-c4ccc(F)cc4)c3c2=O)cc1Cl", "activity change, negative = inhibition": "inactive: -7.95%"}, {"smiles": "Cc1ccc2nc(NC(=O)CNS(=O)(=O)c3ccc(Br)s3)sc2c1", "Potency": "inconclusive: 26.9 µM [inhibitor, single point]"}, {"smiles": "COc1ccc(N2CCN(C(c3cccs3)C(C)NC(=O)C(=O)N3CCCC3)CC2)cc1", "note": "(stereo not given)", "activity change, negative = inhibition": "inactive: 0.817%"}, {"smiles": "O=C(Nc1cnn(Cc2ccc(F)cc2)c1)c1noc2c1CCCC2", "Potency": "active: 15.1 µM"}, {"smiles": "Cc1onc(-c2ccccc2)c1C(=O)N/N=C(\\N)COc1ccc(Cl)cc1", "activity change, negative = inhibition": "inactive: 0.539%"}, {"smiles": "CCN(CC)c1ccc(/C=N/Nc2nc(C)cc(C)n2)c(O)c1", "Potency": "inconclusive: 37.9 µM [inhibitor, single point]"}, {"smiles": "CCc1nnc(NS(=O)(=O)c2ccc(N3C(=O)C4CC=C(Cl)CC4C3=O)cc2)s1", "note": "(stereo not given)", "activity change, negative = inhibition": "inactive: 1.71%"}, {"smiles": "CCOC(=O)CSc1nc(-c2ccncc2)ccc1C#N", "Potency": "inconclusive: 3.38 µM [inhibitor, partial curve, poor fit]"}, {"smiles": "O=C(OCCN1CCCCC1)c1cc2ccccc2o1", "Potency": "inconclusive: 23.9 µM [inhibitor, single point]"}, {"smiles": "CCOC(=O)C(C)Sc1nnc2ccc3ccccc3n12", "note": "(stereo not given)", "Potency": "inconclusive: 15.1 µM [inhibitor, partial curve, poor fit]"}, {"smiles": "CC(=O)c1cccc(NC(=O)c2nc(-c3ccc(C)cc3)n3c2CCCCC3)c1", "Potency": "inconclusive: 37.9 µM [inhibitor, partial curve, poor fit]"}, {"smiles": "CC(C)N1CCN(Cc2cccn2-c2nccs2)CC1CCO", "note": "(stereo not given)", "Potency": "inconclusive: 26.9 µM [inhibitor, partial curve, poor fit]"}, {"smiles": "CC(C)N1C(=O)S/C(=C/c2ccc3c(c2)n(C)c(=O)n3C)C1=O", "Potency": "inconclusive: 21.3 µM [inhibitor, partial curve, poor fit]"}, {"smiles": "Cn1cc(CNC(=O)c2ccc3nc(Cc4ccccc4F)oc3c2)cn1", "Potency": "active: 23.9 µM"}, {"smiles": "Cc1ccccc1OCCCCn1cnc2ccccc21", "Potency": "active: 19 µM"}, {"smiles": "CCCCCCCCc1c(O)nc(-n2[nH]c(C)c(CCO)c2=O)[nH]c1=O", "Potency": "inconclusive: 15.1 µM [inhibitor, partial curve, poor fit]"}, {"smiles": "CN(C1=C(N2CCCCC2)C(=O)c2ccccc2C1=O)c1ccccc1", "Potency": "inconclusive: 12 µM [inhibitor, partial curve, poor fit]"}, {"smiles": "O=C(Nc1ccn(Cc2ccccc2)n1)c1ccc2c(c1)OCO2", "Potency": "active: 5.36 µM"}, {"smiles": "CCOc1ccc(Oc2ccc(-c3nnc(-c4ccccc4)o3)cc2[N+](=O)[O-])cc1", "Potency": "inconclusive: 26.9 µM [inhibitor, partial curve, poor fit]"}]}]}
